The results in this text go back to the GPR68 mutational scans of Howard et al. (2025).

Scores with a large standard error are left out. The source holds two more conditions with little spread; they are left out. Read del as a deletion of the residues named and ins as an insertion between two positions. For some of these results: The concentration of ogerin is not given here.

The chains are these.
B1: GPR68, Q15743 (parent)
chain: MGNITADNSSMSCTIDHTIHQTLAPVVYVTVLVVGFPANCLSLYFGYLQIKARNELGVYLCNLTVADLFYICSLPFWLQYVLQHDNWSHGDLSCQVCGILLYENIYISVGFLCCISVDRYLAVAHPFRFHQFRTLKAAVGVSVVIWAKELLTSIYFLMHEEVIEDENQHRVCFEHYPIQAWQRAINYYRFLVGFLFPICLLLASYQGILRAVRRSHGTQKSRKDQIQRLVLSTVVIFLACFLPYHVLLLVRSVWEASCDFAKGVFNAYHFSLLLTSFNCVADPVLYCFVSETTHRDLARLRGACLAFLTCSRTGRAREAYPLGAPEASGKSGAQGEEPELLTKLHPAFQTPNSPGSGGFPTGRLA

Variants of B1 are the subject of data set [1]. The data set is described as follows: cAMP reporter score (Enrich2 score, wild type = 0); higher = more signal; HEK293T, FACS bins.
In data set [2] the parent is B1. The data set is described as follows: surface expression score (Enrich2 score, wild type = 0); higher = more signal; HEK293T, FACS bins.

For MGNITADNSSMSCTIDHTIHQTLAPVVYVTVLVVGFPANCLSLYFGYLQIKARNELGVYLCNLTVADLFYICSLPFWLQYVLQHDNWSHGDLSCQVCGILLYENIYISVGFLCCISVDRYLAVAHPFRFHQFRTLKAAVGVSVVIWAKELLTSIYFLMHEEVIEDENQHRVCFEHYPIQAWQRAINYYRFLVGFLFPICLLLASYQGILRAVRRSHGTQKSRKDQIQRLVLSTVVIFLACFLPYHVLLLVRSVWEASCDRAKGVFNAYHFSLLLTSFNCVADPVLYCFVSETTHRDLARLRGACLAFLTCSRTGRAREAYPLGAPEASGKSGAQGEEPELLTKLHPAFQTPNSPGSGGFPTGRLA [F260R], the cAMP reporter score was 0.059 in data set [1] (pH 5.5); -0.28 in data set [1] (pH 6); 0.123 in data set [1] (pH 6.5, modulator: ogerin). Besides, the surface expression score in data set [2] was 1.26.
Turning to MGNITADNSSMSCTIDHTIHQTLAPVVYVTVLVVGFPANCLSLYFGYLQIKARNELGVYLCNLTVADLFYICSLPFWLQYVLQHDNWSHGDLSCQVCGILLYENIYISVGFLCCISVDRYLAVAHPFRFHQFRTLKAAVGVSVVIWAKELLTSIYFLMHEEVIEDENQHRVCFEHYPIQAWQRAINYYRFLVGFLFPICLLLASYQGILRAVRRSHGTQKSRKDQIQRLVLSTVVIFLACFLPYHVLLLVRSVWEASCDSAKGVFNAYHFSLLLTSFNCVADPVLYCFVSETTHRDLARLRGACLAFLTCSRTGRAREAYPLGAPEASGKSGAQGEEPELLTKLHPAFQTPNSPGSGGFPTGRLA [F260S], the cAMP reporter score in data set [1] (pH 5.5) is 0.183; in data set [1] (pH 6), -0.24; in data set [1] (pH 6, modulator: ogerin), 0.549; in data set [1] (pH 6.5, modulator: ogerin) it was -0.198. The surface expression score in data set [2] was 0.898.
For MGNITADNSSMSCTIDHTIHQTLAPVVYVTVLVVGFPANCLSLYFGYLQIKARNELGVYLCNLTVADLFYICSLPFWLQYVLQHDNWSHGDLSCQVCGILLYENIYISVGFLCCISVDRYLAVAHPFRFHQFRTLKAAVGVSVVIWAKELLTSIYFLMHEEVIEDENQHRVCFEHYPIQAWQRAINYYRFLVGFLFPICLLLASYQGILRAVRRSHGTQKSRKDQIQRLVLSTVVIFLACFLPYHVLLLVRSVWEASCDTAKGVFNAYHFSLLLTSFNCVADPVLYCFVSETTHRDLARLRGACLAFLTCSRTGRAREAYPLGAPEASGKSGAQGEEPELLTKLHPAFQTPNSPGSGGFPTGRLA [F260T] the same measures were -0.256, -0.683, 0.017, -0.787 and 0.432.
For MGNITADNSSMSCTIDHTIHQTLAPVVYVTVLVVGFPANCLSLYFGYLQIKARNELGVYLCNLTVADLFYICSLPFWLQYVLQHDNWSHGDLSCQVCGILLYENIYISVGFLCCISVDRYLAVAHPFRFHQFRTLKAAVGVSVVIWAKELLTSIYFLMHEEVIEDENQHRVCFEHYPIQAWQRAINYYRFLVGFLFPICLLLASYQGILRAVRRSHGTQKSRKDQIQRLVLSTVVIFLACFLPYHVLLLVRSVWEASCDQAKGVFNAYHFSLLLTSFNCVADPVLYCFVSETTHRDLARLRGACLAFLTCSRTGRAREAYPLGAPEASGKSGAQGEEPELLTKLHPAFQTPNSPGSGGFPTGRLA [F260Q] the same measures were -1.05, 1.03, -0.492, -0.15 and -0.199.
